{"source": "paper PMC9911399", "about": "“Two distinct binding modes provide the RNA-binding protein RbFox with extraordinary sequence specificity”", "binders": {"B1": {"name": "UAUUGAC (DNA:RNA)", "RNA": "GGGAGACCGGAAUUCAGAUUGUCCUAUUGACUUAAAUCCCGUCGUAGCCACCA", "DNA 1": "CAATCTGAATTCCGGTCTCCC", "DNA 2": "TGGTGGCTACGACGGGATT"}, "B2": {"name": "UAUUAAU (DNA:RNA)", "RNA": "B1 RNA with G29A, C31U", "DNA 1": "CAATCTGAATTCCGGTCTCCC", "DNA 2": "TGGTGGCTACGACGGGATT"}, "B3": {"name": "CAAGAAC (DNA:RNA)", "RNA": "B1 RNA with U25C, U27A, U28G, G29A", "DNA 1": "CAATCTGAATTCCGGTCTCCC", "DNA 2": "TGGTGGCTACGACGGGATT"}, "B4": {"name": "UUCUCGG (DNA:RNA)", "RNA": "B1 RNA with A26U, U27C, G29C, A30G, C31G", "DNA 1": "CAATCTGAATTCCGGTCTCCC", "DNA 2": "TGGTGGCTACGACGGGATT"}, "B5": {"name": "GUAAGUU (DNA:RNA)", "RNA": "B1 RNA with U25G, A26U, U27A, U28A, A30U, C31U", "DNA 1": "CAATCTGAATTCCGGTCTCCC", "DNA 2": "TGGTGGCTACGACGGGATT"}, "B6": {"name": "CGGGGCC (DNA:RNA)", "RNA": "B1 RNA with U25C, A26G, U27G, U28G, A30C", "DNA 1": "CAATCTGAATTCCGGTCTCCC", "DNA 2": "TGGTGGCTACGACGGGATT"}, "B7": {"name": "AUUUAGA (DNA:RNA)", "RNA": "B1 RNA with U25A, A26U, G29A, A30G, C31A", "DNA 1": "CAATCTGAATTCCGGTCTCCC", "DNA 2": "TGGTGGCTACGACGGGATT"}, "B8": {"name": "CGUUUUC (DNA:RNA)", "RNA": "B1 RNA with U25C, A26G, G29U, A30U", "DNA 1": "CAATCTGAATTCCGGTCTCCC", "DNA 2": "TGGTGGCTACGACGGGATT"}, "B9": {"name": "AACAGAU (DNA:RNA)", "RNA": "B1 RNA with U25A, U27C, U28A, C31U", "DNA 1": "CAATCTGAATTCCGGTCTCCC", "DNA 2": "TGGTGGCTACGACGGGATT"}}, "note": "Substitutions are numbered along the chain they refer to; changes in the protein carry UniProt numbers. The list shows a part of the results.", "data": [{"molecular_target": "T1, RBFOX1 RRM (Homo sapiens, UniProt Q9NWB1 109-208)", "T1 sequence": "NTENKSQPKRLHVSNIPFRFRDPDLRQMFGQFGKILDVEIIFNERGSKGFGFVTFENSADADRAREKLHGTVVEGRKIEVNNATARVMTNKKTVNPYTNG", "test": "EMSA; HiTS-Eq, 1 nM pool, 10 min; buffer printed only for the single-RNA assays: 10 mM Tris pH 7.5, 150 mM NaCl, 3.4 mM EDTA, 0.001% NP-40, 30 C", "settings": "tags: His6 N-terminal (pET28a); label: 5' 32P", "summary_of_the_method": "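These values rest on relative association constants, computed from read-count changes of each RNA species versus the control reaction and normalised to the cognate motif. Reads came from free RNA recovered by 8% native PAGE after purified RbFox RRM (wild type or mutant) at increasing concentrations was equilibrated for 10 min in 50 µL with 1 nM of a 5′-radiolabelled pool with 7 randomized nucleotides and DNA-annealed flanks.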", "values": [{"binder": "B1", "binding signal": "0.0107 KA relative to UGCAUGU"}, {"binder": "B2", "binding signal": "0.00844 KA relative to UGCAUGU"}, {"binder": "B3", "binding signal": "0.00116 KA relative to UGCAUGU"}, {"binder": "B4", "binding signal": "0.0142 KA relative to UGCAUGU"}, {"binder": "B5", "binding signal": "0.00979 KA relative to UGCAUGU"}, {"binder": "B6", "binding signal": "0.0267 KA relative to UGCAUGU"}, {"binder": "B7", "binding signal": "0.0108 KA relative to UGCAUGU"}, {"binder": "B8", "binding signal": "0.0118 KA relative to UGCAUGU"}, {"binder": "B9", "binding signal": "0.00207 KA relative to UGCAUGU"}]}]}
